# Source: PubChem BioAssay AID1347417 (National Center for Advancing Translational Sciences (NCATS), 2020)
# About 5,300 (4.4%) of roughly 120,000 compounds were called active. Inconclusive results, whose numbers are uncertain, are shown with a selection of clear calls. Calls follow the shape of the dose curve; as a rule, active = well fitted inhibition curve with a large enough effect; inconclusive = small, poorly fitted or top-dose-only effect; inactive = no such curve, though single readings can be large or run the other way. Potencies of inconclusive entries are doubtful fits and often do not repeat.
# Assay: qHTS Primary assay for Inhibitors of Plasmodium falciparum Dd2 growth in vitro; also: nearly all actives have a fitted effect of over 65% in size;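 as to activity, negative = inhibition: plate controls were DMSO vehicle for no effect and reference drug for full effect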
# Conditions: P. falciparum Dd2 growth, SYBR Green, 72 h; activity, negative = inhibition: at 28.9 µM (top of the series) unless noted; series mostly up to 28.9 µM
# Method in brief: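 Infected erythrocytes (Dd2, 0.3% parasitemia, 2.5% hematocrit final) are added to compound in RPMI-1640/Albumax II medium, grown 72 h at 37C in low oxygen, then lysed with saponin/Triton-X containing SYBR Green and read by fluorescence.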
# Potency is read from the fitted curve at half-maximal effect; tags tell the direction and shape of the fitted curve.
Compound,Potency,"activity, negative = inhibition",outcome
CC[C@H]1CN2CC[C@H]1C[C@@H]2COC(=O)Nc1cc(OC)cc(OC)c1,"inconclusive: 2.24 µM [inhibitor, partial curve]",,
O=C(NCC1CCCO1)c1ccc(Cn2ccn3nc4c(c3c2=O)CCCC4)cc1 (configuration not stated),"inconclusive: 3.98 µM [inhibitor, single point]",,
COc1ccc(C(=O)N[C@@H]2CCC[C@@H]2C(=O)N2CCOCC2)cn1,,inactive: 13.7%,
CC(=O)NCCC(=O)N1Cc2ccccc2CC2(CCCN2Cc2ccncc2)C1 (configuration not stated),,inactive: 0.449%,
CNC(=O)C1CCC(Cn2c(=O)c3sccc3n(CC(=O)NCc3ccccc3)c2=O)CC1 (configuration not stated),"inconclusive: 7.08 µM [inhibitor, partial curve, poor fit]",,
Cc1ccccc1C(=O)Nc1sc2c(c1C(=O)NCc1ccco1)CCC(C(C)(C)C)C2 (configuration not stated),active: 11.2 µM,,
O=C(c1ccc(C(F)(F)F)cc1)N1CCC2(CC1)CC(O)CCO2 (configuration not stated),,inactive: 0.875%,
CCC1=Nc2cc(C(=O)NCCCOC)ccc2Sc2ccc(Br)cc21,,inactive: -27.7%,
Cn1cccc1C(=O)NC[C@H]1O[C@@H](CO)[C@@H](O)C1N1CCN(c2ccccc2)CC1 (some centres not stated),"inconclusive: 2 µM [inhibitor, partial curve, poor fit]",,
c1ccc(-c2cc3c(cn2)NCCN(Cc2ccccn2)C3)cc1,"inconclusive: 31.6 µM [inhibitor, single point]",,
Fc1ccc(CNc2ncncc2-c2nc(-c3ccccc3)no2)cc1,"inconclusive: 17.8 µM [inhibitor, single point]",,
Cc1nc(N2CCN(C(=O)c3ccc(F)c(Cl)c3)CC2)cc(C(F)(F)F)n1,"inconclusive: 5.01 µM [inhibitor, partial curve, poor fit]",,
N#Cc1ccc(C(=O)N2CCCC(CO)CCNC(=O)CC2)cc1 (configuration not stated),"inconclusive: 20 µM [inhibitor, single point]",,
CCc1ccc(CN(Cc2ccco2)c2cnc(S(C)(=O)=O)nc2C(=O)Nc2cccc(C)c2)cc1,active: 11.2 µM,,
O=C(CC1CCCC1)N1CCC(c2nc(CCOc3ccc(F)cc3)no2)C1 (configuration not stated),,,inactive
O=c1[nH]c(C2CCN(Cc3ccc(Cl)cc3)CC2)nc2ccc(F)cc12,,inconclusive: -62% [inhibitor],
CC1(c2ccccc2)N(Cc2ccc(O)cc2)C(=O)OC12CCN(C(=O)C1CCC1)CC2 (configuration not stated),"inconclusive: 3.55 µM [inhibitor, single point]",,
O=C(NCCSc1c(-c2ccccc2)[nH]c2ccccc12)c1ccc(S(=O)(=O)N2CCOCC2)cc1,active: 10 µM,,
COc1cccc(NC(=O)CN2C(=O)NC3(CCCCC3)C2=O)c1,,,inactive
C#C[C@H]1CN2CC[C@H]1C[C@@H]2CNC(=O)CCCC(=O)O,,inactive: -17.5% [at 44.1 µM],
CCOc1ccc2c(c1)c(=O)c(S(=O)(=O)c1ccccc1)cn2CC(=O)Nc1ccccc1OC,active: 11.2 µM,,
CC(c1cccs1)N(C)Cc1ccc(N(C)C)cc1 (configuration not stated),"inconclusive: 15.8 µM [inhibitor, single point]",,
CCOc1ccc(CN2CCN(c3ncnc4sc5c(c34)CC(C)CC5)CC2)cc1 (configuration not stated),,inactive: 24.6%,

Compound,Potency,"activity, negative = inhibition",outcome
Cc1cn2nc(C(=O)NCc3cccc(C(F)(F)F)c3)cc2c(N2CCSCC2)n1,,,inactive
CCc1ccc(S(=O)(=O)c2cn(CC)c3cc(N4CCOCC4)c(F)cc3c2=O)cc1,"inconclusive: 11.2 µM [inhibitor, single point]",,
Cc1ccccc1-c1nc(-c2c(C)noc2C)cc2cc(CO)oc12,,inactive: -29.9% [at 44.1 µM],
COc1ccc(C2Cn3nnc(-c4nc(-c5ccccc5Cl)no4)c3CO2)cc1 (configuration not stated),,,inactive
CCCc1ccc(CN2CC[C@@H]3[C@@H](CCC(=O)N3CCc3cnc[nH]3)C2)o1,"inconclusive: 7.94 µM [inhibitor, partial curve, poor fit]",,
Cc1ccc(CN2CCc3nc(C(=O)Nc4nc(C)cs4)oc3CC2)cc1,"inconclusive: 0.562 µM [inhibitor, full curve]",,
CN1CC(=O)N(C2CCCC2)Cc2c(NCc3cccc(F)c3)ncnc21,,inactive: -15.5%,
O=C(NCc1ccncc1)C1c2ccccc2C(=O)N(Cc2ccccc2)C12CCCC2 (configuration not stated),"inconclusive: 20 µM [inhibitor, single point]",,
O=C(CC1CCCC1)N1CCC(c2noc(-c3ccncc3)n2)C1 (configuration not stated),,,inactive [at 5.79 µM]
CC(C)NC(=O)C[C@@H]1C[C@H]2O[C@H](CNC3CCOCC3)[C@@H](O)[C@H]2O1,,inactive: 6.98% [at 44.1 µM],
Cc1ccccc1Cn1c(CN2CCC(C(=O)NCCN(C)C)CC2)cc2ccccc21,active: 1 µM,,
O=C(c1ccc(F)c(Cl)c1)N1CCC2(CC1)N=C(c1ccccc1)NO2,"inconclusive: 17.8 µM [inhibitor, single point]",,
CCCc1cnc2c(c1SCc1ccc(C(F)(F)F)cc1)c(=O)n(C)c(=O)n2C,"inconclusive: 17.8 µM [inhibitor, single point]",,
CC(=O)N1C[C@@H]2CCCN3CCC[C@@H]([C@H]23)[C@H]1CCCC(=O)N(C)C1CCN(C)CC1,,inactive: -24.7%,
COc1ccc(C2Cn3cnc(-c4nc(-c5ccsc5)no4)c3CO2)cc1 (configuration not stated),"inconclusive: 20 µM [inhibitor, single point]",,
Cc1ccc(C2=NC3(CCN(C(=O)c4ccc(F)cc4F)CC3)ON2)cc1,"inconclusive: 3.98 µM [inhibitor, single point]",,
O=C1CN(C(=O)Nc2ccccc2C(F)(F)F)C(c2ccccc2)c2c(sc3c2CCCC3)N1 (configuration not stated),"inconclusive: 10 µM [inhibitor, single point]",,
NCCC(=O)N1CCCC2(Cc3ccccc3CN2C(=O)c2cccc(Cl)c2)C1 (configuration not stated),"inconclusive: 12.6 µM [inhibitor, single point]",,
CCn1nccc1C(=O)N1CCCC(c2nc(-c3cccnc3)no2)CCNC(=O)CC1 (configuration not stated),,inactive: 6.57%,
COc1ccccc1NS(=O)(=O)c1cc2c(cc1Cl)NC(=O)CO2,active: 8.91 µM,,
O=C(c1cc2c(s1)CN(C1CCCC1)C2)N1CCCN(c2ncccn2)CC1,"inconclusive: 6.31 µM [inhibitor, partial curve, poor fit]",,
CCCC(=O)N1Cc2ccccc2CC2(CCCN2Cc2ccc(OC)cc2)C1 (configuration not stated),"inconclusive: 17.8 µM [inhibitor, single point]",,
O=C(C1CCCC1)N1CC[C@](O)(c2ccccc2)[C@H](N2CCCC2)C1,"inconclusive: 3.16 µM [inhibitor, single point]",,

Compound,Potency,"activity, negative = inhibition",outcome
COc1ccc(C(=O)N[C@@H]2c3ccccc3C3(CCNCC3)[C@H]2OC)c(C)c1,,inactive: -17.9%,
Cc1ccc(NC(=O)c2c(C)nc3sc(C(=O)Nc4ccc(F)cc4)c(N)c3c2-c2ccccc2Cl)c(C)c1,"inconclusive: 3.16 µM [inhibitor, full curve, poor fit]",,
Cc1ccc(-n2ncc(C(=O)NCCCN3CCCCC3)c2C2CCN(C(=O)OC(C)(C)C)CC2)cc1,active: 10 µM,,
CCc1noc(-c2cn(C3CCN(C(=O)c4cc(OC)cc(OC)c4)CC3)nn2)n1,"inconclusive: 8.91 µM [inhibitor, partial curve]",,
NC(=O)CN1CCC(C(=O)NCc2cc(-c3ccc(Cl)cc3)on2)CC1,,,inactive
COc1cc(SC)ccc1C(=O)N[C@H]1CCN2C(=O)[C@@H](CC(C)C)NC(=O)[C@@H]2C1,"inconclusive: 11.2 µM [inhibitor, single point]",,
CCC(CC)c1cc([C@H]2CN3CC[C@H]2C[C@@H]3CNC(=O)c2ccco2)nc(-c2ccncc2)n1,"inconclusive: 2.51 µM [inhibitor, partial curve, poor fit]",,
CCN1CCN(c2cc(C)c3cc(NC(=O)c4cc(Cl)ccc4OC)ccc3n2)CC1,"inconclusive: 1.26 µM [inhibitor, full curve, poor fit]",,
CC[C@H]1CN2CC[C@H]1C[C@@H]2CNCc1ccc(-c2ccccc2)cc1,"inconclusive: 2.24 µM [inhibitor, partial curve, poor fit]",,
Cc1cccc(CNC(=O)c2cnc3sc(N4CCCCCC4)nn3c2=O)c1,"inconclusive: 0.355 µM [inhibitor, partial curve, poor fit]",,
N#Cc1ccc(CN2CCC3(COC(=O)N3Cc3ccccc3)C2)cc1 (configuration not stated),,inactive: -5.09% [at 44.1 µM],
CC(=O)c1ccc(NC(=O)Cn2c(=O)n(Cc3ccco3)c(=O)c3sc4ccccc4c32)cc1,"inconclusive: 10 µM [inhibitor, single point]",,
Cc1nnc(-c2cc(-c3cccc(CO)c3)ccn2)n1CCN1CCOCC1,,,inactive [at 44.1 µM]
O[C@H]1[C@H](NC2CCOCC2)[C@@H](C2CCCCC2)C[C@H]1O,"inconclusive: 3.55 µM [inhibitor, single point]",,
O=C(Cc1cccs1)N1CCC2(CC1)CC(N(Cc1ccc(F)cc1)C1CC1)CCO2 (configuration not stated),"inconclusive: 12.6 µM [inhibitor, partial curve, poor fit]",,
CNC(=O)[C@@H](C1CC1)N1CCC[C@H]1C(=O)NCc1ccccn1,,inactive: 19.3% [at 44.1 µM],
COc1cccc(-c2noc(CC3CCN(C(=O)c4ccc(OC)c(OC)c4)CC3)n2)c1,"inconclusive: 10 µM [inhibitor, single point]",,
Cc1nn(-c2ccc(F)cc2)c(Oc2cccc(F)c2)c1CCC(=O)N1CCSCC1,active: 7.94 µM,,
Cc1ccccc1CC(=O)N1CCCn2cc(-c3cccc(C#N)c3)nc21,"inconclusive: 11.2 µM [inhibitor, single point]",,
CCN(CCCNC(=O)Cn1ncc2c([nH]c3ccc(C)cc32)c1=O)Cc1ccccc1,"inconclusive: 17.8 µM [inhibitor, single point]",,
Clc1cccc(CSc2nnc(C3CCNCC3)o2)c1,"inconclusive: 8.91 µM [inhibitor, partial curve]",,
